Among the data in PMC5651818, “VPS18 recruits VPS41 to the human HOPS complex via a RING–RING interaction” (Biochemical Journal, 2017) are binding values, retold here.

No constants are given. Whether binding was seen depends on the method and setting. In cells and extracts the contact can be indirect. Some binding calls cover weakened binding; strength is not graded here. Tags and fused reporters may be left off the sequences shown.

What all share (assay): co-IP; HEK293T cells transfected with EGFP-tagged constructs; GFP-TRAP beads; lysis in 10 mM Tris-HCl (pH 7.5), 150 mM NaCl, 0.5 mM EDTA, 0.5% NP-40; immunoblot for endogenous subunits
Background: A western blot detects proteins with antibodies after separation by electrophoresis.

The target in assay [1] is T1, EGFP-tagged VPS18 N-terminal construct (residues 1–841) (human) (UniProt Q9P253).
T1 sequence: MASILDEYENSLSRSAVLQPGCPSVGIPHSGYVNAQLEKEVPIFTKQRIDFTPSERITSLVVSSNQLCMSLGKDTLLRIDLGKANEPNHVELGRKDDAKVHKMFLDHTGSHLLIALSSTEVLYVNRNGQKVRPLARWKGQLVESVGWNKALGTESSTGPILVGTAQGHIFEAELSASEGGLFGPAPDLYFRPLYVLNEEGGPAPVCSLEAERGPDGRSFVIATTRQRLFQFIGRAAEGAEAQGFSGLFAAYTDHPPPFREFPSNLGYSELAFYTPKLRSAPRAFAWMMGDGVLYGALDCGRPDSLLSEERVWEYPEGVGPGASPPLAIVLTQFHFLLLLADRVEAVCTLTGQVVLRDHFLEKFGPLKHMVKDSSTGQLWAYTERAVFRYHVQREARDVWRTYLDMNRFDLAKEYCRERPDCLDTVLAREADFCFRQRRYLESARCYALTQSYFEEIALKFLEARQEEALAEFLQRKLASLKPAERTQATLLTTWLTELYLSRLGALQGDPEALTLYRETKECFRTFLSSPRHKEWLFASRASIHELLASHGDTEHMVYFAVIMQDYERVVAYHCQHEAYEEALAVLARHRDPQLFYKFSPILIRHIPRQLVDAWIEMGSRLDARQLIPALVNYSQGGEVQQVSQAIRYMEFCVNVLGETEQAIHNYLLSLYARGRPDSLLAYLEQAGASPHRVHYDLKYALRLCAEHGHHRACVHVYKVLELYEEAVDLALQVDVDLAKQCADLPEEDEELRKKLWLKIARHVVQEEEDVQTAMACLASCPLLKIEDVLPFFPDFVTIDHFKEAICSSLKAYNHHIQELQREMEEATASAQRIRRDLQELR

Assay [2] addresses T2, EGFP-tagged VPS18 RING construct (residues 842–973) (human) (UniProt Q9P253).
T2 sequence: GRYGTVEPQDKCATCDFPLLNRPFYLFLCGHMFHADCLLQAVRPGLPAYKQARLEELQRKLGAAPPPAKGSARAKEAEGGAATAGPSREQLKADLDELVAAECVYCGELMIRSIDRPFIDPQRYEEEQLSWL

The target in assay [3] is T3, EGFP-tagged VPS18 extended construct (residues 752–973) (human) (UniProt Q9P253).
T3 sequence: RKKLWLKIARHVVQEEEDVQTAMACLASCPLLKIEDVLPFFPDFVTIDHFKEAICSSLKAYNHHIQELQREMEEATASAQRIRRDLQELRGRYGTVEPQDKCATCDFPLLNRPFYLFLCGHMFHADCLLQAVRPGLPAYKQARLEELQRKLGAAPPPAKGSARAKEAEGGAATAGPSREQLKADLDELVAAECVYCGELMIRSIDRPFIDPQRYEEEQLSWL

In assay [4] the target is T4, EGFP-tagged full-length VPS18 (1–973) (human) (UniProt Q9P253).
T4 sequence: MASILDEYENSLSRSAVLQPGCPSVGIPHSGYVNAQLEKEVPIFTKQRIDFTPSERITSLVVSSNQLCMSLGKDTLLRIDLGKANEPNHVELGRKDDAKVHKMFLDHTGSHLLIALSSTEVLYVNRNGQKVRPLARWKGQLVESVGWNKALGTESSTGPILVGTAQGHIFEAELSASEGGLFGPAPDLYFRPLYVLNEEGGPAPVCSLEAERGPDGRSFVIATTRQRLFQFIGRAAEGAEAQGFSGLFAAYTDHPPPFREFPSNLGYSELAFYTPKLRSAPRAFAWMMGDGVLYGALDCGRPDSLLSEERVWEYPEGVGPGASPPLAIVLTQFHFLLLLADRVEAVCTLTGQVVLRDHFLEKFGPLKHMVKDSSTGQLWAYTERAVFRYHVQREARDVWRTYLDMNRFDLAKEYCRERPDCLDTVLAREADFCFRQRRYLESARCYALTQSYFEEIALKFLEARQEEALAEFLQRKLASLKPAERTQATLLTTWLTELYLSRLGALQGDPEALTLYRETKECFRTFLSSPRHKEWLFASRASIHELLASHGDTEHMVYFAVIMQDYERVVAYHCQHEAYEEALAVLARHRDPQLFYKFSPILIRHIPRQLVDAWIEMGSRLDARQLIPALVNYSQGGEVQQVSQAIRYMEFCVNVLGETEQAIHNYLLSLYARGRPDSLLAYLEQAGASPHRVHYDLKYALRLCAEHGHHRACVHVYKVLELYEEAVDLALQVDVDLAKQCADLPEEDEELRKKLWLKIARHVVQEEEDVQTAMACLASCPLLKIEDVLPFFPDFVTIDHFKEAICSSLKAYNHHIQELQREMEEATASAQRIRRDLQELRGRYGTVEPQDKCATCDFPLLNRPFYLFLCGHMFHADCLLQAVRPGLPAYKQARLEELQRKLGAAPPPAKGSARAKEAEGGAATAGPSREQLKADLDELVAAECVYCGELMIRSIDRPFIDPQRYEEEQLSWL

Assay [5] addresses T5, EGFP-tagged VPS41 RING domain (residues 778–854) (human) (UniProt P49754).
T5 sequence: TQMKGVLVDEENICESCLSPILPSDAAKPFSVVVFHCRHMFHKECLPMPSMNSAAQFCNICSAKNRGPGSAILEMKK

The target in assay [6] is T6, EGFP-tagged VPS8 RING long construct (human) (UniProt Q8N3P4).
T6 sequence: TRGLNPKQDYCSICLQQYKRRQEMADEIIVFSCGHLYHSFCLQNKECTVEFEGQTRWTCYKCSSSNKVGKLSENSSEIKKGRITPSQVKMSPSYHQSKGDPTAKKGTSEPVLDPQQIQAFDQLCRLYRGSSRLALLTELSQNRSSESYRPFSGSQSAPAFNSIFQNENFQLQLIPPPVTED

Assay [7] addresses T7, EGFP-tagged VPS8 RING short construct (human) (UniProt Q8N3P4).
T7 sequence: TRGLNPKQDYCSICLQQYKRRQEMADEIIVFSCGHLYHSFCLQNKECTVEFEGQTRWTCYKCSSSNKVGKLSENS

The target of assay [8] is T8, EGFP-tagged full-length VPS41 (human) (UniProt P49754).
T8 sequence: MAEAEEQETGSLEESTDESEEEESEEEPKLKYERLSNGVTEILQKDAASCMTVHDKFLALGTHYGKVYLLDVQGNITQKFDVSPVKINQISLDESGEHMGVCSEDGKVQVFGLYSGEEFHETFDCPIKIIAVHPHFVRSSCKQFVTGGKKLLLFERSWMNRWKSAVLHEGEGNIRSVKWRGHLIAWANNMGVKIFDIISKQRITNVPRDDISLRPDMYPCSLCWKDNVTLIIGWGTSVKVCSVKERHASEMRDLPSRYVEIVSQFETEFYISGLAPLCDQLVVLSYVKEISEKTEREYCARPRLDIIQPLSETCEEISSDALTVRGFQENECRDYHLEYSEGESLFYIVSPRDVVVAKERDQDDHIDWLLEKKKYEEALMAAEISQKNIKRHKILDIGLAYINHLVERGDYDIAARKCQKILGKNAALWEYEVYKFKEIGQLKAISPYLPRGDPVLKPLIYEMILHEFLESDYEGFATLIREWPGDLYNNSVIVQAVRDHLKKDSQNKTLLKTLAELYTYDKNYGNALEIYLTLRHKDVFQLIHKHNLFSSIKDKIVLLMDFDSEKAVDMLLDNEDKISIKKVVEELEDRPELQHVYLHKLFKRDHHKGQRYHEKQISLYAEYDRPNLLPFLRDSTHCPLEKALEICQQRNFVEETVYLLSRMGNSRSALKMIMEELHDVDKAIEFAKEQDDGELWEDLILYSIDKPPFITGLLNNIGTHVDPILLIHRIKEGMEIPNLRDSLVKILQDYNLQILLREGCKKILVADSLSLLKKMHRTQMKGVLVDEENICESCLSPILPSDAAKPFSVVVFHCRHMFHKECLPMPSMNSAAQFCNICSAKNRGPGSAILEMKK

B1: endogenous VPS41 (protein, UniProt P49754 1-854)
chain: MAEAEEQETGSLEESTDESEEEESEEEPKLKYERLSNGVTEILQKDAASCMTVHDKFLALGTHYGKVYLLDVQGNITQKFDVSPVKINQISLDESGEHMGVCSEDGKVQVFGLYSGEEFHETFDCPIKIIAVHPHFVRSSCKQFVTGGKKLLLFERSWMNRWKSAVLHEGEGNIRSVKWRGHLIAWANNMGVKIFDIISKQRITNVPRDDISLRPDMYPCSLCWKDNVTLIIGWGTSVKVCSVKERHASEMRDLPSRYVEIVSQFETEFYISGLAPLCDQLVVLSYVKEISEKTEREYCARPRLDIIQPLSETCEEISSDALTVRGFQENECRDYHLEYSEGESLFYIVSPRDVVVAKERDQDDHIDWLLEKKKYEEALMAAEISQKNIKRHKILDIGLAYINHLVERGDYDIAARKCQKILGKNAALWEYEVYKFKEIGQLKAISPYLPRGDPVLKPLIYEMILHEFLESDYEGFATLIREWPGDLYNNSVIVQAVRDHLKKDSQNKTLLKTLAELYTYDKNYGNALEIYLTLRHKDVFQLIHKHNLFSSIKDKIVLLMDFDSEKAVDMLLDNEDKISIKKVVEELEDRPELQHVYLHKLFKRDHHKGQRYHEKQISLYAEYDRPNLLPFLRDSTHCPLEKALEICQQRNFVEETVYLLSRMGNSRSALKMIMEELHDVDKAIEFAKEQDDGELWEDLILYSIDKPPFITGLLNNIGTHVDPILLIHRIKEGMEIPNLRDSLVKILQDYNLQILLREGCKKILVADSLSLLKKMHRTQMKGVLVDEENICESCLSPILPSDAAKPFSVVVFHCRHMFHKECLPMPSMNSAAQFCNICSAKNRGPGSAILEMKK
With B1, the binding entry was “binds weakly” in assay [1], “binds” in assay [2], “binds” in assay [3] and “binds” in assay [4].

B2: endogenous VPS18 (protein, UniProt Q9P253 1-973)
chain: MASILDEYENSLSRSAVLQPGCPSVGIPHSGYVNAQLEKEVPIFTKQRIDFTPSERITSLVVSSNQLCMSLGKDTLLRIDLGKANEPNHVELGRKDDAKVHKMFLDHTGSHLLIALSSTEVLYVNRNGQKVRPLARWKGQLVESVGWNKALGTESSTGPILVGTAQGHIFEAELSASEGGLFGPAPDLYFRPLYVLNEEGGPAPVCSLEAERGPDGRSFVIATTRQRLFQFIGRAAEGAEAQGFSGLFAAYTDHPPPFREFPSNLGYSELAFYTPKLRSAPRAFAWMMGDGVLYGALDCGRPDSLLSEERVWEYPEGVGPGASPPLAIVLTQFHFLLLLADRVEAVCTLTGQVVLRDHFLEKFGPLKHMVKDSSTGQLWAYTERAVFRYHVQREARDVWRTYLDMNRFDLAKEYCRERPDCLDTVLAREADFCFRQRRYLESARCYALTQSYFEEIALKFLEARQEEALAEFLQRKLASLKPAERTQATLLTTWLTELYLSRLGALQGDPEALTLYRETKECFRTFLSSPRHKEWLFASRASIHELLASHGDTEHMVYFAVIMQDYERVVAYHCQHEAYEEALAVLARHRDPQLFYKFSPILIRHIPRQLVDAWIEMGSRLDARQLIPALVNYSQGGEVQQVSQAIRYMEFCVNVLGETEQAIHNYLLSLYARGRPDSLLAYLEQAGASPHRVHYDLKYALRLCAEHGHHRACVHVYKVLELYEEAVDLALQVDVDLAKQCADLPEEDEELRKKLWLKIARHVVQEEEDVQTAMACLASCPLLKIEDVLPFFPDFVTIDHFKEAICSSLKAYNHHIQELQREMEEATASAQRIRRDLQELRGRYGTVEPQDKCATCDFPLLNRPFYLFLCGHMFHADCLLQAVRPGLPAYKQARLEELQRKLGAAPPPAKGSARAKEAEGGAATAGPSREQLKADLDELVAAECVYCGELMIRSIDRPFIDPQRYEEEQLSWL
B2: the binding result is on record as “binds” in assay [5], “binds” in assay [6], “no binding” in assay [7] and “binds” in assay [8].
